Drawing on a collection of fitness landscapes (doi:10.1126/science.1257360), this text covers enrichment ratio for 195 variants.

Some of the results follow.

To fix the notation:
B1: PhoQ; a variant is named by its letters at X, in order, P23837 (parent)
chain: MKKLLRLFFPLSLRVRFLLATAAVVLVLSLAYGMVALIGYSVSFDKTTFRLLRGESNLFYTLAKWENNKLHVELPENIDKQSPTMTLIYDENGQLLWAQRDVPWLMKMIQPDWLKSNGFHEIEADVNDTSLLLSGDHSIQQQLQEVREDDDDAEMTHSVAVNVYPATSRMPKLTIVVVDTIPVELKSSYMVWSWFIYVLSANLLLVIPLLWVAAWWSLRPIEALAKEVRELEEHNRELLNPATTRELTSLVRNLNRLLKSERERYDKYRTTLTDLTHSLKTPLXXLQXXLRSLRSEKMSVSDAEPVMLEQISRISQQIGYYLHRASMRGGTLLSRELHPVAPLLDNLTSALNKVYQRKGVNISLDISPEISFVGEQNDFVEVMGNVLDNACKYCLEFVEISARQTDEHLYIVVEDDGPGIPLSKREVIFDRGQRVDTLRPGQGVGLAVAREITEQYEGKIVAGESMLGGARMEVIFGRQHSAPKDE

Variants of B1 are the subject of this test. Put plainly: enrichment ratio after two sorts for PhoP signalling (ratio (wild type AVST 3.29)); higher = more functional. To be noted: with PhoP (E. coli).
On to RFGI, for which the enrichment ratio is not above 0.25.

With FGKI, the enrichment ratio is not above 0.25.

Turning to EDCP, the enrichment ratio was not above 0.25.

As for GGYN, the enrichment ratio is not above 0.25.

QTFK: the enrichment ratio was not above 0.25.

As to LPMV, the enrichment ratio is not above 0.25.

RQSK: the enrichment ratio was not above 0.25.

Consider YKDY, for which the enrichment ratio is not above 0.25.

As for GVAK, the enrichment ratio came to 11.7.

In the case of FNWH, the enrichment ratio is not above 0.25.

On to VPAA, for which the enrichment ratio was not above 0.25.

In the case of PENV, the enrichment ratio is not above 0.25.

For TCDA, the enrichment ratio was not above 0.25.

On to MWPR, for which the enrichment ratio was not above 0.25.

RCGG: the enrichment ratio was not above 0.25.

In the case of MFNT, the enrichment ratio is not above 0.25.

Consider LDIN, for which the enrichment ratio was not above 0.25.

On to PHSF, for which the enrichment ratio was not above 0.25.

For TWLE, the enrichment ratio is not above 0.25.

In the case of EYNH, the enrichment ratio was not above 0.25.

For the variant GKFC, the enrichment ratio was not above 0.25.

Consider YWDW, for which the enrichment ratio is not above 0.25.

Consider NAPK, for which the enrichment ratio is not above 0.25.

For the variant TGQS, the enrichment ratio turned out to be 8.69.

Consider HVNR, for which the enrichment ratio is not above 0.25.

For the variant WISS, the enrichment ratio is not above 0.25.

For the variant GKKC, the enrichment ratio was not above 0.25.

Regarding NAVW, the enrichment ratio was not above 0.25.

For the variant VYGA, the enrichment ratio was not above 0.25.

For the variant MYKF, the enrichment ratio is not above 0.25.

Regarding ATCN, the enrichment ratio stood at 3.42.

As to REMV, the enrichment ratio is not above 0.25.

With LMNE, the enrichment ratio was not above 0.25.

Consider KGIR, for which the enrichment ratio is not above 0.25.

For PHII, the enrichment ratio is not above 0.25.

On to YSPK, for which the enrichment ratio was not above 0.25.

For the variant RSYP, the enrichment ratio is not above 0.25.

On to ISHR, for which the enrichment ratio was not above 0.25.

As for HWNF, the enrichment ratio is not above 0.25.

As for DKQP, the enrichment ratio is not above 0.25.

YWGM: the enrichment ratio is not above 0.25.

As for KCPV, the enrichment ratio is not above 0.25.

In the case of GTDA, the enrichment ratio was not above 0.25.

Take KKGV: the enrichment ratio is not above 0.25.

In the case of PAQI, the enrichment ratio is not above 0.25.

For the variant HESY, the enrichment ratio was not above 0.25.

On to SSEC, for which the enrichment ratio is not above 0.25.

Take KNCK: the enrichment ratio is not above 0.25.

Take YYCL: the enrichment ratio was not above 0.25.

Take MMFS: the enrichment ratio was not above 0.25.

On to SECG, for which the enrichment ratio came to 13.7.

Turning to NGEL, the enrichment ratio was not above 0.25.

For PQMS, the enrichment ratio was not above 0.25.

In the case of TPRN, the enrichment ratio is not above 0.25.

Take QSWF: the enrichment ratio was 7.13.

Consider EAWY, for which the enrichment ratio is not above 0.25.

Regarding RAVN, the enrichment ratio is not above 0.25.

KRCD: the enrichment ratio is not above 0.25.

Turning to AYIS, the enrichment ratio is not above 0.25.

In the case of ISAW, the enrichment ratio was not above 0.25.

Take EPYQ: the enrichment ratio is not above 0.25.

For MGEH, the enrichment ratio is not above 0.25.

Turning to KVTS, the enrichment ratio was not above 0.25.

In the case of IQIK, the enrichment ratio is not above 0.25.

Regarding KSTY, the enrichment ratio is not above 0.25.

Regarding GDRP, the enrichment ratio is not above 0.25.

With WLEP, the enrichment ratio is not above 0.25.

On to REAI, for which the enrichment ratio is not above 0.25.

Regarding PHRG, the enrichment ratio is not above 0.25.

Turning to MCST, the enrichment ratio came to 3.88.

Regarding VPDD, the enrichment ratio is not above 0.25.

IFQG: the enrichment ratio was not above 0.25.

For LCNV, the enrichment ratio is not above 0.25.

Consider MNQH, for which the enrichment ratio is not above 0.25.

As for GRLA, the enrichment ratio is not above 0.25.

On to DPPS, for which the enrichment ratio is not above 0.25.

DHVP: the enrichment ratio was not above 0.25.

Regarding WNYG, the enrichment ratio is not above 0.25.

Turning to GHWW, the enrichment ratio was not above 0.25.

Turning to QIAH, the enrichment ratio was not above 0.25.

Consider ECRF, for which the enrichment ratio is not above 0.25.

In the case of RDEV, the enrichment ratio is not above 0.25.

As to NWIV, the enrichment ratio was not above 0.25.

Regarding HPNW, the enrichment ratio is not above 0.25.

As to NYLR, the enrichment ratio is not above 0.25.

As to EVRG, the enrichment ratio is not above 0.25.

On to RVAY, for which the enrichment ratio was not above 0.25.

With IHPD, the enrichment ratio was not above 0.25.

As for YMLF, the enrichment ratio is not above 0.25.

With PKKA, the enrichment ratio is not above 0.25.

As for GLAK, the enrichment ratio is not above 0.25.

With PLWK, the enrichment ratio was not above 0.25.

Consider YLSA, for which the enrichment ratio worked out at 0.253.

YELT: the enrichment ratio amounted to 4.19.

As for FVHY, the enrichment ratio was not above 0.25.

For KGIY, the enrichment ratio is not above 0.25.

With IIEF, the enrichment ratio was not above 0.25.

YQKL: the enrichment ratio was not above 0.25.

With AFAN, the enrichment ratio was not above 0.25.

Turning to QEFD, the enrichment ratio is not above 0.25.

With LLPL, the enrichment ratio is not above 0.25.

In the case of WSVK, the enrichment ratio was not above 0.25.

Take VNVV: the enrichment ratio turned out to be 1.94.

For FIRN, the enrichment ratio was not above 0.25.

Turning to TELA, the enrichment ratio was 16.8.

On to RFRL, for which the enrichment ratio was not above 0.25.

As for RTEC, the enrichment ratio was not above 0.25.

With AFFP, the enrichment ratio was not above 0.25.

With FPIS, the enrichment ratio is not above 0.25.

As for HRTG, the enrichment ratio was not above 0.25.

For TWPC, the enrichment ratio is not above 0.25.

As for QLYP, the enrichment ratio was not above 0.25.

As to IDWH, the enrichment ratio is not above 0.25.

As to LTHY, the enrichment ratio was not above 0.25.

Take KTPR: the enrichment ratio was not above 0.25.

Turning to WHWQ, the enrichment ratio is not above 0.25.

As to VTCN, the enrichment ratio was not above 0.25.

As to NLLD, the enrichment ratio was not above 0.25.

Consider VRRC, for which the enrichment ratio is not above 0.25.

MMAT: the enrichment ratio is 5.54.

As to KMVD, the enrichment ratio is not above 0.25.

EMCH: the enrichment ratio was not above 0.25.

Consider QKVD, for which the enrichment ratio is not above 0.25.

For HALM, the enrichment ratio was found to be 14.3.

With CNLV, the enrichment ratio was not above 0.25.

In the case of GRWQ, the enrichment ratio was not above 0.25.

Regarding LQCR, the enrichment ratio is not above 0.25.

As for SYAP, the enrichment ratio is not above 0.25.

Take MGGE: the enrichment ratio is not above 0.25.

Turning to LMPS, the enrichment ratio was not above 0.25.

Regarding RVWG, the enrichment ratio is not above 0.25.

Consider YYGE, for which the enrichment ratio was not above 0.25.

As to HMIE, the enrichment ratio was not above 0.25.

As to TSDY, the enrichment ratio is 5.66.

For the variant WQAW, the enrichment ratio was not above 0.25.

Regarding MFFK, the enrichment ratio is not above 0.25.

Turning to GMSG, the enrichment ratio is not above 0.25.

Regarding RTSW, the enrichment ratio is not above 0.25.

As for SQTD, the enrichment ratio was not above 0.25.

Take GDTC: the enrichment ratio is not above 0.25.

With YRGE, the enrichment ratio was not above 0.25.

Regarding VEQN, the enrichment ratio is not above 0.25.

Consider AMLN, for which the enrichment ratio came to 7.92.

In the case of FMNF, the enrichment ratio was not above 0.25.

For the variant EVHS, the enrichment ratio was not above 0.25.

Consider HAYW, for which the enrichment ratio is not above 0.25.

For LTAC, the enrichment ratio was not above 0.25.

As to STDI, the enrichment ratio is not above 0.25.

For the variant ITRK, the enrichment ratio is not above 0.25.

ILHY: the enrichment ratio was not above 0.25.

As to FKGT, the enrichment ratio was not above 0.25.

On to DAPV, for which the enrichment ratio is not above 0.25.

As for DFEP, the enrichment ratio was not above 0.25.

Turning to HLWT, the enrichment ratio is not above 0.25.

Take TKRL: the enrichment ratio is not above 0.25.

On to RDSM, for which the enrichment ratio is not above 0.25.

On to SKDL, for which the enrichment ratio was not above 0.25.

As for SRVF, the enrichment ratio is not above 0.25.

Turning to RKYH, the enrichment ratio was not above 0.25.

For the variant AGMF, the enrichment ratio came out at 8.27.

As to PFAH, the enrichment ratio is not above 0.25.

On to PYEH, for which the enrichment ratio was not above 0.25.

With HNTV, the enrichment ratio is not above 0.25.

As for WNKP, the enrichment ratio is not above 0.25.

Consider NRPL, for which the enrichment ratio is not above 0.25.

As to FKDR, the enrichment ratio is not above 0.25.

MDGM: the enrichment ratio was not above 0.25.

As to IFED, the enrichment ratio is not above 0.25.

PDWG: the enrichment ratio is not above 0.25.

Turning to FQDA, the enrichment ratio was not above 0.25.

On to YLFC, for which the enrichment ratio is not above 0.25.

Regarding KCGA, the enrichment ratio is not above 0.25.

In the case of GARA, the enrichment ratio was not above 0.25.

EYTW: the enrichment ratio was not above 0.25.

For the variant DHAG, the enrichment ratio is not above 0.25.

For NYRC, the enrichment ratio is not above 0.25.

GRIR: the enrichment ratio was not above 0.25.

Consider HNIG, for which the enrichment ratio was not above 0.25.

Consider VLIG, for which the enrichment ratio is not above 0.25.

With DVAP, the enrichment ratio is not above 0.25.

As for NLSG, the enrichment ratio is not above 0.25.

WGAY: the enrichment ratio was not above 0.25.

Regarding GSMM, the enrichment ratio was found to be 4.61.

In the case of NYLH, the enrichment ratio is not above 0.25.

On to YLPC, for which the enrichment ratio is not above 0.25.

Turning to PGCP, the enrichment ratio was not above 0.25.

Take SFTF: the enrichment ratio is not above 0.25.

Consider TGDC, for which the enrichment ratio was not above 0.25.

For the variant QARI, the enrichment ratio was not above 0.25.

Turning to PMKS, the enrichment ratio is not above 0.25.

Take VHDR: the enrichment ratio is not above 0.25.

YIVA: the enrichment ratio is not above 0.25.

For the variant GYLD, the enrichment ratio was not above 0.25.

On to IKGN, for which the enrichment ratio is not above 0.25.

As to LNPE, the enrichment ratio was not above 0.25.
